From PubChem BioAssay AID1478 (National Center for Advancing Translational Sciences (NCATS), 2009)
Out of some 200,000 compounds screened, about 860 (0.43%) were called active. Inconclusive means that the source gave no clear call. Such entries were picked first, then a sample of the others. The call rests on the fitted dose curve; in most records, active means well fitted inhibition curve with a large enough effect; inconclusive means small, poorly fitted or top-dose-only effect; inactive means flat fitted curve, though single readings scatter. Potencies of inconclusive entries are doubtful fits and often do not repeat.

Biological target: Cruzipain (Trypanosoma cruzi) (UniProt P25779)
Assay: qHTS Assay for Promiscuous and Specific Inhibitors of Cruzain (with detergent); further: nearly all actives have a fitted effect of over 40% in size;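 on max response, negative = inhibition: plate controls were neutral wells for no effect and buffer without enzyme for full effect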
Conditions: purified cruzain, Z-FR-AMC fluorescence, 0.01% Triton
Procedure, shortened: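 Detergent-containing run (0.01% Triton X-100) in acetate buffer pH 5.5 with 5 mM DTT: enzyme at 1.5 nM final, 15 min compound preincubation at room temperature, then 2 uM Z-FR-AMC substrate. Activity taken as 60 s fluorescence increase at 360/450 nm.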
Potency means the concentration at half of the fitted maximal effect; tags describe the fitted curve by direction and shape.

Sequence of UniProt P25779 (P25779 whole entry, looked up): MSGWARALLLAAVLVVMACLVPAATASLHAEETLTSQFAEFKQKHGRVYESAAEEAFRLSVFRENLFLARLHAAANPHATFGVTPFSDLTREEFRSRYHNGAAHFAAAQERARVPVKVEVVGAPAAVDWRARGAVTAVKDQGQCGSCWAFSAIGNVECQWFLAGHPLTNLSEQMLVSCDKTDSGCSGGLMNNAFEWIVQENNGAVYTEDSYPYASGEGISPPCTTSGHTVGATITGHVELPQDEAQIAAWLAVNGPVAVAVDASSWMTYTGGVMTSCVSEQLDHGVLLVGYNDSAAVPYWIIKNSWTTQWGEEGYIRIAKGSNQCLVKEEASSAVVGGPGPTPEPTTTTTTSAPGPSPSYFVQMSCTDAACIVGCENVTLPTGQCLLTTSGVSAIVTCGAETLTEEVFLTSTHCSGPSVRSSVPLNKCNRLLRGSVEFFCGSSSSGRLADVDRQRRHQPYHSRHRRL

Compound	max response, negative = inhibition	Potency
CCc1nn2c(=O)cc(COC(=O)c3cccs3)nc2s1	inactive: -2.81%	
Cc1ccc(C)c(OCC(O)CN2CCN(CCN3C(=O)c4cccc5cccc(c45)C3=O)CC2)c1 (stereo not drawn)		inconclusive: 28.2 µM [inhibitor, single point]
Cc1ccccc1C(=O)NC1(C(F)(F)F)N=C(c2ccccc2)N(Cc2ccccc2)C1=O (stereo not drawn)	inactive: -5.67%	
Cc1cnn(C(=S)NCCc2ccccc2)c1		active: 15.8 µM
Cc1nc(C)c(CCNC(=O)c2cccc(Cl)c2)s1		inconclusive: 28.2 µM [inhibitor, single point]
COC(=O)c1c(NC(=O)CSc2ncnc3c2cnn3-c2ccccc2Cl)sc2c1CCCC2	inactive: -6.33%	
Cc1ccc(Nc2nc3ccccc3[nH]2)nc1		inconclusive: 28.2 µM [inhibitor, single point]
CCCC1CCC(C2=N/C(=C\c3ccc(OC)c(OC)c3)C(=O)O2)CC1 (stereo not drawn)		active: 1 µM
Cc1ccc(C(c2c(C)nn(-c3ccccc3)c2N)c2c(C)nn(-c3ccccc3)c2N)cc1		inconclusive: 35.5 µM [inhibitor, single point]
O=C(Nc1cccnc1)c1cc2c(ccc3ccccc32)o1		inconclusive: 25.1 µM [inhibitor, single point]
COc1cc(NC(=O)c2ccc(Cl)cc2Cl)ccc1-c1cc2ccccc2oc1=O	inactive: 1%	
Cc1ccc(C)c(NC(=O)CSc2nnc([C@@H](N)Cc3c[nH]c4ccccc34)o2)c1		inconclusive: 25.1 µM [inhibitor, single point]
COC(=O)c1sccc1S(=O)(=O)N(CC(=O)Nc1cc(F)ccc1F)c1ccc(C)c(C)c1	inactive: -5.44%	
NC(=S)N=Nc1c(O)n(Cc2ccc(Br)cc2)c2ccccc12		inconclusive: 1.41 µM [inhibitor, partial curve]
CCOC(=O)c1cc2c(=O)n3cccc(C)c3nc2n(CCCOC)c1=NC(=O)c1cccnc1		inconclusive: 28.2 µM [inhibitor, single point]
COc1cc2c(cc1OC)-c1cc(OCCN3CCOCC3)nc(=O)n1CC2		inconclusive: 39.8 µM [inhibitor, single point]
Clc1ccc(OCCSCc2nc3ccccc3[nH]2)cc1		inconclusive: 20 µM [inhibitor, single point]
CC1(C)C(C=C(Cl)Cl)C1C(=O)Nc1ccc([N+](=O)[O-])cc1 (stereo not drawn)		active: 12.6 µM
CCOc1ccccc1NC(=S)NC(=O)CCCOc1ccc(Cl)cc1Cl	inactive: -2.4%	
Nc1nc(Nc2cccc(F)c2)nc2ccccc12		inconclusive: 14.1 µM [inhibitor, partial curve]
Cc1c(NC(=O)/C(C#N)=C/c2ccc(-c3ccccc3Cl)o2)c(=O)n(-c2ccccc2)n1C		inconclusive: 35.5 µM [inhibitor, single point]
CCCCN(CC)CCCNC(=O)c1cc2cc3ccc(OC)cc3nc2o1		inconclusive: 28.2 µM [inhibitor, single point]
CCOC(=O)N1CCN(C(=O)CC(=O)Nc2ccc3nc4n(c(=O)c3c2)CCCCC4)CC1	inactive: 1.4%	

Compound	max response, negative = inhibition	Potency
N#CC1=C(S)N(c2ccccc2)C(c2ccc(-c3cccc(Cl)c3)o2)NC1=O (stereo not drawn)		inconclusive: 31.6 µM [inhibitor, single point]
C/C(=N\NC(=S)Nc1ccc(F)cc1)c1ccc2c(c1)OCCO2		inconclusive: 0.562 µM [inhibitor, full curve, poor fit]
CC1(C)Cc2c(C#N)c(NC3CCCCC3)nc(-c3ccco3)c2CO1		inconclusive: 35.5 µM [inhibitor, single point]
CCOc1ccc(NC(=O)CC2C(=O)N(c3ccc(OC)cc3)C(=O)N2CCC2=CCCCC2)cc1 (stereo not drawn)	inactive: -8.72%	
O=C(CSc1ncnc2c1cnn2-c1ccccc1)Nc1ccc2c(c1)OCO2	inactive: 2.03%	
Cc1cc(NS(=O)(=O)c2ccc(NC(=O)COc3cc(C)c(Br)cc3C(C)C)cc2)no1		inconclusive: 25.1 µM [inhibitor, single point]
CCOc1ccc2nc(NC3=NC(C)(C)C=C(C)N3)nc(C)c2c1		active: 28.2 µM
Cc1cc(C)c2nc(N3CCCN(C(=O)c4ccco4)CC3)c(C#N)cc2c1		inconclusive: 28.2 µM [inhibitor, single point]
Cc1nn(Cc2c(Cl)cccc2Cl)c(C)c1NC(=O)c1sc2ccccc2c1Cl	inactive: -5.77%	
CCCn1c(SCC(=O)N2CC(=O)Nc3ccccc32)nc2ccccc21		active: 12.6 µM
Cc1cc(OCC(=O)Nc2ccc(N3CCCC3)cc2)cc(C)c1Cl		inconclusive: 25.1 µM [inhibitor, single point]
COC(=O)Cc1c(C)c2ccc(O)c(CN3CCCC(C)C3)c2oc1=O (stereo not drawn)		active: 25.1 µM
CN1CCN(c2ncc3ncc(=O)n(-c4ccccc4)c3n2)CC1		inconclusive: 28.2 µM [inhibitor, single point]
Cc1nn(-c2ccccc2)c(OC(=O)c2ccc(Br)cc2)c1S(=O)(=O)c1ccccc1	inactive: 1.3%	
O=C(O)c1ccc(COc2ccc3ccccc3c2/C=C2/NC(=O)N(c3ccccc3)C2=O)cc1		inconclusive: 35.5 µM [inhibitor, single point]
O=C(Nc1nc(-c2cc3ccccc3oc2=O)cs1)c1ccc(Br)o1		inconclusive: 14.1 µM [inhibitor, partial curve]
O=C(Nc1ccccc1)c1ccc2nc(-c3ccco3)c(-c3ccco3)nc2c1		inconclusive: 5.01 µM [inhibitor, single point]
Cc1ccc(-c2noc(CCC(=O)Nc3ccc(F)cc3Cl)n2)cc1	inactive: 0.0957%	
COC(=O)CSc1nc2c(c(-c3ccco3)c1C#N)CCCC2		active: 28.2 µM
CSC1=NC2(CCN(C(=O)NC3CCCCC3)CC2)N=C1c1ccc(C)c(C)c1	inactive: -1.05%	
NC(=O)COc1ccc2c3c(c(=O)oc2c1)CCCCC3		inconclusive: 31.6 µM [inhibitor, single point]
COc1ccccc1OC(C)C(=O)Nc1ccc(-c2nc3ccccc3s2)cc1 (stereo not drawn)	inactive: -1.19%	
CCOC(=O)N1CCN(C(=O)c2ccc3c(c2)sc2nc(-c4ccccc4)cn23)CC1		inconclusive: 25.1 µM [inhibitor, single point]

Compound	max response, negative = inhibition	Potency
CCc1nnc(NS(=O)(=O)c2ccc(N/C=C\C(=O)c3cccc4ccccc34)cc2)s1		inconclusive: 35.5 µM [inhibitor, single point]
COc1ccc(N2C(=O)CC(S/C(N)=N/N=C/c3ccnc4ccccc34)C2=O)cc1 (stereo not drawn)		active: 25.1 µM
O=S(=O)(O)c1ccc(O)c2ncccc12.O=S(=O)(O)c1ccc(O)c2ncccc12.[Zn]		inconclusive: 3.55 µM [inhibitor, single point]
C#CCOCCOCCOCCNc1nc(N2CCN(C(=O)Cn3cc(CCCN=C(N)N)nn3)CC2)nc(N2CCN(C(=O)[C@H]([C@@H](C)CC)n3cc(CCCN=C(N)N)nn3)CC2)n1		active: 25.1 µM
CCOCCCn1c(=N)c(C(=O)NCC2CCCO2)cc2c(=O)n3cccc(C)c3nc21 (stereo not drawn)		inconclusive: 31.6 µM [inhibitor, single point]
N#Cc1nc(-c2ccc(Cl)cc2)oc1N1CCCCC1		inconclusive: 35.5 µM [inhibitor, single point]
CSCC[C@H](NC(=O)c1ccc(Cl)c([N+](=O)[O-])c1)c1nc2ccccc2[nH]1		active: 14.1 µM
CC(=O)NCCC(Cc1ccccc1)c1ccco1 (stereo not drawn)		inconclusive: 35.5 µM [inhibitor, single point]
COc1ccc(NC(=O)Cc2noc3ccc(C)cc23)cc1Cl		inconclusive: 22.4 µM [inhibitor, single point]
CNC(=O)c1sccc1S(=O)(=O)Cc1c(Cl)cccc1Cl	inactive: 6.67%	
O=C(O)C1Cc2c([nH]c3ccccc23)C(c2coc3ccccc3c2=O)N1 (stereo not drawn)	inactive: 1.03%	
Cc1sc(NC(=O)CN2CCOCC2)nc1-c1ccc2c(c1)CCN2S(=O)(=O)c1ccccc1	inactive: -3.6%	
O=C(Cn1c(=O)sc2ccccc21)Nc1ccc(S(=O)(=O)N2CCCCC2)cc1	inactive: -4.89%	
CC(=O)Oc1cc2oc(=O)cc(C)c2cc1OC(C)=O		inconclusive: 31.6 µM [inhibitor, single point]
COc1ccc2c(c1)[nH]c1c(Cl)ncnc12	inactive: -9.27%	
Cc1cccn2c(=O)c3cc(C(N)=S)c(=N)n(CCCOC(C)C)c3nc12		inconclusive: 31.6 µM [inhibitor, single point]
Cc1ccc(C(=O)O[C@H](C(=O)O)[C@@H](OC(=O)c2ccc(C)cc2)C(=O)O)cc1 (tested in a mixture with another compound)	inactive: -3.96%	
COC(=O)CSc1nc(N)c2c3c(sc2n1)C(c1ccccc1)SC(c1ccccc1)C3 (stereo not drawn)		inconclusive: 14.1 µM [inhibitor, partial curve]
CN(C)Cc1c(O)ccc2c3c(c(=O)oc12)CCCCC3		active: 22.4 µM
CCCCNC(=S)N(C)/N=C/c1c(C)[nH]c2ccccc12		inconclusive: 22.4 µM [inhibitor, single point]
O=C(NCc1ccc2[nH]c3c(c2c1)CCCC3)c1ccc(S(=O)(=O)N2CCOCC2)cc1	inactive: -4.89%	
O=c1c(-c2nc3ccccc3o2)c2oc3ccccc3n2c2ccccc12		inconclusive: 35.5 µM [inhibitor, single point]
